The values below come from paper PMC8360153.

Experiment [1] deals with T1, fluorescent (NT-647)-labeled ActS (E. coli) (UniProt Q46798).
T1 sequence (chain, NT-647 fluorescent label (site not stated)): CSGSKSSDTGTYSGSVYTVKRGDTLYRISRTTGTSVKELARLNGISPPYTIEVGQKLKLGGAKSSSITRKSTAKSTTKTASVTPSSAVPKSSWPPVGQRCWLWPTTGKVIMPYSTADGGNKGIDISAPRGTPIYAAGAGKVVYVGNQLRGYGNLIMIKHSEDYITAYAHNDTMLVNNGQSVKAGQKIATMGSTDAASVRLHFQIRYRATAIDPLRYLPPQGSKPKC
In words: MST; 100 nM FL-ActS (NT-647-labeled) titrated with two-fold serial dilutions of unlabeled amidase; 50 mM Tris-HCl pH 8, 150 mM NaCl, 5% glycerol, 0.025% TX-100; both purified.

Experiment [2] addresses T2, oligohistidine-tagged ActS (E. coli) (UniProt Q46798).
T2 sequence: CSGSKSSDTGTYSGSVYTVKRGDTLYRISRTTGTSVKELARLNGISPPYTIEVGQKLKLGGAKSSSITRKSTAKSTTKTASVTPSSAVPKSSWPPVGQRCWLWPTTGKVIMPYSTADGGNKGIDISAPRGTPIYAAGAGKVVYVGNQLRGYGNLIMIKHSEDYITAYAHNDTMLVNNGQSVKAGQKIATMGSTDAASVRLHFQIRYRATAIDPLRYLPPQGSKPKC
In words: pull-down; oligohistidine-tagged ActS mixed with untagged amidase (2 μM each) in 10 mM HEPES/NaOH pH 7.5, 10 mM MgCl2, 150 mM NaCl, 0.05% Triton X-100; no formaldehyde cross-linker; pulled down to Ni2+-NTA beads 3 hr at 4°C; washed with 500 mM NaCl, 40 mM imidazole; Coomassie-stained SDS-PAGE; both purified.

Results are given in words; binding and its absence hold for the method and conditions named. Some results given as binding are weak or reduced against the parent protein; the word gives no strength. For some assays here: Tags and fused reporters may be left off the sequences shown.

B1: AmiC (enzyme, UniProt P63883 32-417)
chain: AVSQVVAVRVWPASSYTRVTVESNRQLKYKQFALSNPERVVVDIEDVNLNSVLKGMAAQIRADDPFIKSARVGQFDPQTVRMVFELKQNVKPQLFALAPVAGFKERLVMDLYPANAQDMQDPLLALLEDYNKGDLEKQVPPAQSGPQPGKAGRDRPIVIMLDPGHGGEDSGAVGKYKTREKDVVLQIARRLRSLIEKEGNMKVYMTRNEDIFIPLQVRVAKAQKQRADLFVSIHADAFTSRQPSGSSVFALSTKGATSTAAKYLAQTQNASDLIGGVSKSGDRYVDHTMFDMVQSLTIADSLKFGKAVLNKLGKINKLHKNQVEQAGFAVLKAPDIPSILVETAFISNVEEERKLKTATFQQEVAESILAGIKAYFADGATLARRG
As for B1, the binding entry in experiment [1] was “binds weakly”; in experiment [2] it was “binds”.

B2: AmiB (enzyme, UniProt P26365 23-445)
chain: ATLSDIQVSNGNQQARITLSFIGDPDYAFSHQSKRTVALDIKQTGVIQGLPLLFSGNNLVKAIRSGTPKDAQTLRLVVDLTENGKTEAVKRQNGSNYTVVFTINADVPPPPPPPPVVAKRVETPAVVAPRVSEPARNPFKTESNRTTGVISSNTVTRPAARATANTGDKIIIAIDAGHGGQDPGAIGPGGTREKNVTIAIARKLRTLLNDDPMFKGVLTRDGDYFISVMGRSDVARKQNANFLVSIHADAAPNRSATGASVWVLSNRRANSEMASWLEQHEKQSELLGGAGDVLANSQSDPYLSQAVLDLQFGHSQRVGYDVATSMISQLQRIGEIHKRRPEHASLGVLRSPDIPSVLVETGFISNNSEERLLASDDYQQQLAEAIYKGLRNYFLAHPMQSAPQGATAQTASTVTTPDRTLPN
For B2, the binding result in experiment [1] is reported as “no binding”; in experiment [2], “no binding (tested: 2 μM)”.

B3: AmiA (enzyme, UniProt P36548 35-289)
chain: KDELLKTSNGHSKPKAKKSGGKRVVVLDPGHGGIDTGAIGRNGSKEKHVVLAIAKNVRSILRNHGIDARLTRSGDTFIPLYDRVEIAHKHGADLFMSIHADGFTNPKAAGASVFALSNRGASSAMAKYLSERENRADEVAGKKATDKDHLLQQVLFDLVQTDTIKNSLTLGSHILKKIKPVHKLHSRNTEQAAFVVLKSPSVPSVLVETSFITNPEEERLLGTAAFRQKIATAIAEGVISYFHWFDNQKAHSKKR
As for B3, the binding entry in experiment [1] is “no binding”.
